The supplement of paper PMC8728848
The list shows a part of the results.

Assays:
Experiment in all cases: glycan array binding signal (z-score within array); higher = stronger binding
Settings in all cases: glycan notation: IUPAC condensed, linker removed
Fuc(a1-2)Gal = target: Fuc(a1-2)Gal
Method in brief: (§1)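 Negative Z-scores can be read as non-binding. The Z-score is calculated within each array and then averaged across arrays of one protein sequence at different concentrations or buffers and across linkers. Arrays, 3228 in all, were curated from the Consortium for Functional Glycomics database and kept only where the protein sequence was available.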

Fuc(a1-2)Gal(b1-3)GalNAc = target: Fuc(a1-2)Gal(b1-3)GalNAc
Method in brief: as §1

[1] = target: Fuc(a1-2)Gal(b1-3)GalNAc(b1-3)Gal
Method in brief: as §1

[2] = target: Fuc(a1-2)Gal(b1-3)GalNAc(b1-3)Gal(a1-4)Gal(b1-4)Glc
Method in brief: as §1

[3] = target: Fuc(a1-2)Gal(b1-3)GalNAc(b1-3)Gal(b1-4)Glc
Method in brief: as §1

[4] = target: Fuc(a1-2)Gal(b1-3)GalNAc(b1-4)[Neu5Ac(a2-3)]Gal(b1-4)Glc
Method in brief: as §1

[5] = target: Fuc(a1-2)Gal(b1-3)[Fuc(a1-4)]GlcNAc
Method in brief: as §1

Fuc(a1-2)Gal(b1-4)Glc = target: Fuc(a1-2)Gal(b1-4)Glc
Method in brief: as §1

Fuc(a1-2)Gal(b1-4)GlcNAc = target: Fuc(a1-2)Gal(b1-4)GlcNAc
Method in brief: as §1

[6] = target: Fuc(a1-2)Gal(b1-4)GlcNAc(b1-3)Gal(b1-4)GlcNAc
Method in brief: as §1

[7] = target: Fuc(a1-2)Gal(b1-4)GlcNAc(b1-3)Gal(b1-4)GlcNAc(b1-3)Gal(b1-4)GlcNAc
Method in brief: as §1

[8] = target: Fuc(a1-2)Gal(b1-4)[Fuc(a1-3)]GalNAc(b1-3)Gal(b1-4)[Fuc(a1-3)]GlcNAc
Method in brief: as §1

[9] = target: Fuc(a1-2)Gal(b1-4)[Fuc(a1-3)]GalNAc(b1-3)Gal(b1-4)[Fuc(a1-3)]GlcNAc(b1-3)Gal(b1-4)[Fuc(a1-3)]GalNAc
Method in brief: as §1

[10] = target: Fuc(a1-2)Gal(b1-4)[Fuc(a1-3)]GlcNAc
Method in brief: as §1

Fuc(a1-2)GlcNAc = target: Fuc(a1-2)GlcNAc
Method in brief: as §1

Fuc(a1-2)[Gal(a1-3)]Gal = target: Fuc(a1-2)[Gal(a1-3)]Gal
Method in brief: as §1

[11] = target: Fuc(a1-2)[Gal(a1-3)]Gal(b1-3)GlcNAc
Method in brief: as §1

[12] = target: Fuc(a1-2)[Gal(a1-3)]Gal(b1-4)Glc
Method in brief: as §1

[13] = target: Fuc(a1-2)[Gal(a1-3)]Gal(b1-4)GlcNAc
Method in brief: as §1

[14] = target: Fuc(a1-2)[Gal(a1-3)]Gal(b1-4)[Fuc(a1-3)]GlcNAc
Method in brief: as §1

[15] = target: Fuc(a1-2)[Gal(a1-4)]Gal(b1-4)GalNAc
Method in brief: as §1

[16] = target: Fuc(a1-2)[GalNAc(a1-3)]Gal
Method in brief: as §1

[17] = target: Fuc(a1-2)[GalNAc(a1-3)]Gal(b1-3)GlcNAc
Method in brief: as §1

[18] = target: Fuc(a1-2)[GalNAc(a1-3)]Gal(b1-4)Glc
Method in brief: as §1

[19] = target: Fuc(a1-2)[GalNAc(a1-3)]Gal(b1-4)GlcNAc
Method in brief: as §1

[20] = target: Fuc(a1-2)[GalNAc(a1-3)]Gal(b1-4)[Fuc(a1-3)]GlcNAc
Method in brief: as §1

[21] = target: Fuc(a1-2)[GalNAc(a1-4)]Gal(b1-4)GlcNAc
Method in brief: as §1

Fuc(a1-3)GlcNAc = target: Fuc(a1-3)GlcNAc
Method in brief: as §1

[22] = target: Fuc(a1-3)[Gal(b1-4)]GlcNAc
Method in brief: as §1

[23] = target: Fuc(a1-3)[Gal(b1-4)]GlcNAc(b1-4)Gal(b1-4)[Fuc(a1-3)]GlcNAc
Method in brief: as §1

B1: HMGB1 (Rattus norvegicus), P63159 (protein)
chain: MGKGDPKKPRGKMSSYAFFVQTCREEHKKKHPDASVNFSEFSKKCSERWKTMSAKEKGKFEDMAKADKARYEREMKTYIPPKGETKKKFKDPNAPKRPPSAFFLFCSEYRPKIKGEHPGLSIGDVAKKLGEMWNNTAADDKQPYEKKAAKLKEKYEKDIAAYRAKGKPDAAKKGVVKAEKSKKKKEEEDDEEDEEDEEEEEEEEDEDEEEDDDDE
glycan array binding signal (z-score) (Fuc(a1-2)Gal): 0.117 | glycan array binding signal (z-score) (Fuc(a1-2)Gal(b1-3)GalNAc): -0.34 | glycan array binding signal (z-score) [1]: 0.287 | glycan array binding signal (z-score) [2]: 0.32 | glycan array binding signal (z-score) [3]: -0.547 | glycan array binding signal (z-score) [4]: -0.006 | glycan array binding signal (z-score) [5]: 1.15 | glycan array binding signal (z-score) (Fuc(a1-2)Gal(b1-4)Glc): -0.708 | glycan array binding signal (z-score) (Fuc(a1-2)Gal(b1-4)GlcNAc): 0.232 | glycan array binding signal (z-score) [6]: -0.592 | glycan array binding signal (z-score) [7]: -0.587 | glycan array binding signal (z-score) [8]: -0.383 | glycan array binding signal (z-score) [9]: -0.163 | glycan array binding signal (z-score) [10]: 0.047 | glycan array binding signal (z-score) (Fuc(a1-2)GlcNAc): 1.12 | glycan array binding signal (z-score) (Fuc(a1-2)[Gal(a1-3)]Gal): -0.649 | glycan array binding signal (z-score) [11]: -0.615 | glycan array binding signal (z-score) [12]: 0.151 | glycan array binding signal (z-score) [13]: -0.301 | glycan array binding signal (z-score) [14]: -0.425 | glycan array binding signal (z-score) [15]: -0.437 | glycan array binding signal (z-score) [16]: -0.068 | glycan array binding signal (z-score) [17]: -0.311 | glycan array binding signal (z-score) [18]: -0.561 | glycan array binding signal (z-score) [19]: -0.034 | glycan array binding signal (z-score) [20]: -0.019 | glycan array binding signal (z-score) [21]: -0.577 | glycan array binding signal (z-score) (Fuc(a1-3)GlcNAc): 9.99 | glycan array binding signal (z-score) [22]: -0.513 | glycan array binding signal (z-score) [23]: -0.193
